Lines with a small IC50 respond at low doses; fits outside the tested doses are given as limits. AUC is the area under the same curve over the 256-fold range up to the top dose, as a fraction: 1 means no effect, lower means more sensitive. For part of these data: Any top dose called inferred was calculated from the reported fits.
What was measured:
Test in all cases: Viability of human cancer cell lines after 72 h of drug (GDSC screen)
Trametinib = compound: CC(=O)Nc1cccc(-n2c(=O)n(C3CC3)c(=O)c3c(Nc4ccc(I)cc4F)n(C)c(=O)c(C)c32)c1 [Trametinib]; conditions: top dose 1 µM
Experimental: (§1)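 Human cancer cell lines in 384-well plates, medium with 10% serum, drug for 72 h over a 256-fold dose range (nine 2-fold or five 4-fold steps up to the top dose). Adherent lines were fixed and stained with the nucleic acid dye Syto60, suspension lines read with resazurin; signal relative to control wells, capped at 0 and 100%. One two-parameter sigmoid per drug and line, fitted in a mixed model over all curves with the slope shared within a line.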

KIN001-244 = compound: O=C(NC(COc1ccc2[nH]c(=O)[nH]c2c1)c1ccccc1)c1cccn(Cc2ccc(F)c(F)c2)c1=O [KIN001-244]; conditions: top dose 20 µM; top dose inferred
Experimental: as §1

HG-6-64-1 = compound: CCN1CCN(Cc2ccc(NC(=O)c3ccc(C)c(/C=C/c4cnc5[nH]ccc5c4OC)c3)cc2C(F)(F)F)CC1 [HG-6-64-1]; conditions: top dose 5.12 µM; top dose inferred
Experimental: as §1

PF-4708671 = compound: CCc1cncnc1N1CCN(Cc2nc3ccc(C(F)(F)F)cc3[nH]2)CC1 [PF-4708671]; conditions: top dose 10 µM; top dose inferred
Experimental: as §1

I-BET-762 = compound: CCNC(=O)C[C@@H]1N=C(c2ccc(Cl)cc2)c2cc(OC)ccc2-n2c(C)nnc21 [I-BET-762]; conditions: top dose 20 µM; top dose inferred
Experimental: as §1

AV-951 = compound: COc1cc2nccc(Oc3ccc(NC(=O)Nc4cc(C)on4)c(Cl)c3)c2cc1OC [AV-951]; conditions: top dose 0.128 µM; top dose inferred
Experimental: as §1

Cell Line	AUC (Trametinib)	IC50 (Trametinib) [nM]	AUC (KIN001-244)	IC50 (KIN001-244) [nM]	AUC (HG-6-64-1)	IC50 (HG-6-64-1) [nM]	AUC (PF-4708671)	IC50 (PF-4708671) [nM]	AUC (I-BET-762)	IC50 (I-BET-762) [nM]	AUC (AV-951)	IC50 (AV-951) [nM]
22RV1 (prostate, adherent)	0.926	> 1000	0.777	10100	0.864	> 5120	0.929	> 10000	0.818	14900	0.957	> 128
42-MG-BA (glioma, adherent)	0.863	968	0.882	> 20000	0.65	860	0.939	> 10000	0.936	> 20000	0.929	> 128
451Lu (melanoma, adherent)	0.078	< 3.91	0.923	> 20000	0.572	500	0.921	> 10000	0.983	> 20000	0.988	> 128
639-V (bladder, adherent)	0.728	246	0.956	> 20000	0.679	926	0.968	> 10000	0.97	> 20000	0.99	> 128
786-0 (kidney, adherent)	0.734	273	0.868	15800	0.481	285	0.792	4140	0.903	> 20000	0.98	> 128
5637 (bladder, adherent)	0.916	> 1000	0.914	> 20000	0.752	1560	0.974	> 10000	0.768	6790	0.989	> 128
8305C (thyroid, adherent)	0.411	33.1	0.936	> 20000	0.53	397	0.898	> 10000	0.982	> 20000	0.978	> 128
8505C (thyroid, adherent)	0.404	33.5	0.822	12500	0.755	1840	0.949	> 10000	0.869	> 20000	0.98	> 128
23132-87 (stomach, adherent)	0.774	408	0.786	8950	0.859	4500	0.943	> 10000	0.896	> 20000	0.985	> 128
A172 (glioma, adherent)	0.607	122	0.883	> 20000	0.621	680	0.928	> 10000	0.965	> 20000	0.989	> 128
A204 (rhabdomyosarcoma, adherent)	0.707	288	0.784	11300	0.412	171	0.924	> 10000	0.757	8830	0.748	52
A431 (skin, adherent)	0.822	553	0.821	11000	0.539	408	0.969	> 10000	0.986	> 20000	0.985	> 128
A498 (kidney, adherent)	0.728	394	0.971	> 20000	0.565	524	0.947	> 10000	0.976	> 20000	0.979	> 128
A673 (rhabdomyosarcoma, adherent)	0.888	924	0.954	> 20000	0.794	2080	0.99	> 10000	0.973	> 20000	0.99	> 128
A2780 (ovary, semi-adherent)	0.5	62.7	0.839	14400	0.797	2510	0.864	9220	0.64	3080	0.981	> 128
ABC-1 (lung adenocarcinoma, adherent)	0.676	216	0.866	> 20000	0.785	2690	0.872	> 10000	0.957	> 20000	0.982	> 128
ACHN (kidney, adherent)	0.514	68.8	0.874	> 20000	0.545	431	0.928	> 10000	0.886	> 20000	0.98	> 128
AN3-CA (endometrium, adherent)	0.808	580	0.882	> 20000	0.387	152	0.982	> 10000	0.985	> 20000	0.985	> 128

From the supplement of paper PMC4967469
